Results reported in publication PMC4336329 (PLoS ONE, 2015).
The whole screen tested about 310,000 compounds, of which about 2,200 (0.71%) showed an effect of 50% or more. Effects have a minus sign here. This is one part of the list.

molecular target: human ether-à-go-go-related gene (hERG) potassium channel (human, UniProt Q12809); assay: primary screen, population patch clamp on CHO cells stably expressing hERG
Sequence (Q12809 whole entry, looked up): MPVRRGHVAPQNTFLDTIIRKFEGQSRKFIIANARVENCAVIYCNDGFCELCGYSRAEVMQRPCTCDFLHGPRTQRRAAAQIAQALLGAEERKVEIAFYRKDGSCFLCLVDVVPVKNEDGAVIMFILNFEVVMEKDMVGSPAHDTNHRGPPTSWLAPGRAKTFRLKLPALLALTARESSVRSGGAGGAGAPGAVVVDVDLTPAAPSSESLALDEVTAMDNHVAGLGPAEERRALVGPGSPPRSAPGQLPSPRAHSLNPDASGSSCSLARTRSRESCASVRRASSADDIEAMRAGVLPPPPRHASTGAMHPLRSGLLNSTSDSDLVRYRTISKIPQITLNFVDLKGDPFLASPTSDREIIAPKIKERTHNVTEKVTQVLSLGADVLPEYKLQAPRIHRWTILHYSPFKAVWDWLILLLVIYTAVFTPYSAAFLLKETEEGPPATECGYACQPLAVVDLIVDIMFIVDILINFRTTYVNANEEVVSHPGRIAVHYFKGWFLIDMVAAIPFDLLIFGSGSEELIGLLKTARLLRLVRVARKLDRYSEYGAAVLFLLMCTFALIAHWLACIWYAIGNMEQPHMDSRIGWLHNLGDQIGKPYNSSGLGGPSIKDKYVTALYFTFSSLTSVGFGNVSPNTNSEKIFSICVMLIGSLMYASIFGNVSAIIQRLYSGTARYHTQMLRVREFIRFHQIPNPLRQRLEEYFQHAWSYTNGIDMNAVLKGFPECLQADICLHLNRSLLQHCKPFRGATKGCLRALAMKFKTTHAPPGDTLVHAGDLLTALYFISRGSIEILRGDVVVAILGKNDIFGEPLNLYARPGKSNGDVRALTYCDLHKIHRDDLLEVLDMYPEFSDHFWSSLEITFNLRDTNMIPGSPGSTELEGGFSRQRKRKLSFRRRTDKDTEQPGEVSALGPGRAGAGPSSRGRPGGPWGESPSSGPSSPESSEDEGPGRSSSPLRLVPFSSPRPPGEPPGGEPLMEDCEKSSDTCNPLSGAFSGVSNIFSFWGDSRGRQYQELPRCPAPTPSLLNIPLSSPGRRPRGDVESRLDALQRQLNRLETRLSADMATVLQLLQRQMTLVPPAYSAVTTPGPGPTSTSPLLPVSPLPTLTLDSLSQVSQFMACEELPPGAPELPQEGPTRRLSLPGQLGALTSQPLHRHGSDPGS

SMILES	hERG current change (%, negative = inhibition) at 1uM [%]
Cc1ccccc1NC(=S)N1CCC(NC(=O)c2ccco2)CC1	-9.84
CCN1CCN(C(=S)Nc2ccsc2C(=O)OC)CC1	5.27
COc1ccc(CC(=O)Nc2nc(C)cs2)cc1OC	-14
CC1(C)NC(=O)N(CC(=O)OCC(=O)Nc2cc(S(=O)(=O)N3CCCCCC3)ccc2Cl)C1=O	5.4
O=C(c1ccc(S(=O)(=O)N2CCCC2)cc1)N(Cc1ccco1)C1CCS(=O)(=O)C1 (stereo not shown)	4.57
CCOc1ccccc1NC(=O)c1ccc(CN2CCc3ccccc3C2)cc1	13.1
CC(C)c1ccc(C2CC(=O)c3cnc(N4CCc5ccccc5C4)nc3C2)cc1 (stereo not shown)	2.78
O=C(COC(=O)c1ccccn1)NCCCc1ccccc1	10.3
CCOc1ccc(S(=O)(=O)N2CCN(C(=O)c3ccc(-n4cncn4)c([N+](=O)[O-])c3)CC2)cc1	-2.11
COCCNC(=O)c1ccccc1NS(=O)(=O)c1ccc(Br)s1	-1.73
CCOc1ccc(NS(=O)(=O)c2ccc(-c3cnc(C4CC4)o3)cc2)cc1	8.66
Cc1ccc(OCC(=O)N(Cc2nnc(-c3ccccc3Cl)o2)C2CC2)cc1C	3.67
O=C(Nc1ccccc1Cl)c1ccc2nccnc2c1	11
Cc1ccc(C2(c3noc(CN(C)CC4COCCO4)n3)CCCC2)cc1 (stereo not shown)	9.05
O=C1CN(C(=O)c2cccc(F)c2)C(c2ccc(F)cc2)c2cc(F)ccc2N1 (stereo not shown)	2.99
COc1ccc(C(c2nnnn2C2CCCC2)N2CCN(c3ccccc3)CC2)cc1 (stereo not shown)	8.87
Cc1cc2c(C)cc(=O)[nH]c2cc1NC(=O)CCl	12.8
Cc1cc(NS(=O)(=O)c2ccc(NC(=O)C(C)Oc3cccc(C)c3C)cc2)nc(C)n1 (stereo not shown)	13.5
CSc1ccccc1NC(=O)CN(C)CC(=O)Nc1cc(C)ccc1C	3.34
CC(=O)OCCCN1C(=O)c2cccc3cc(Br)cc(c23)C1=O	13.7

SMILES	hERG current change (%, negative = inhibition) at 1uM [%]
CN(C1CCCCC1)S(=O)(=O)c1cccc(C#N)c1	18.5
O=C(CCC(=O)OCC(=O)c1ccc(-c2ccccc2)cc1)Nc1cccc2cccnc12	12.9
CCCCC(=O)Nc1ccc2c(c1)C(=O)NC2=O	4.32
COc1ccc(-c2c(NC(C)=O)n(C)c3ccccc3c2=O)cc1	2.8
CCOC(=O)N1CCC(NC(=O)c2cnn3c2NC(c2ccco2)CC3C(F)(F)F)CC1 (stereo not shown)	2.18
CCc1ccc(CC)c(S(=O)(=O)Nc2ccc(O)c(C(=O)O)c2)c1	-6.83
CCN1CCN(C(=O)c2c(-c3c(Cl)cccc3Cl)noc2C)CC1	11.9
CC(C(=O)NC1CCCC1)N(Cc1ccc2c(c1)OCO2)C(=O)c1snc(C(N)=O)c1N (stereo not shown)	14
CC(=O)c1ccc(NC(=S)NC(=O)/C=C/c2ccco2)cc1	12.9
Cc1nn(C)c(C)c1/C=C/C(=O)O	7.48
c1csc(-c2nc3ccccn3c2NC2CCCCC2)c1	3.51
O=C(NCC(=O)N(CCN1CCOCC1)C(C(=O)NC1CCCC1)c1cccs1)c1ccco1 (stereo not shown)	5.39
CCOC(=O)C(NCCCO)c1ccccc1 (stereo not shown)	5.28
CN(C(=O)c1ccccn1)c1nnc(-c2cccnc2)s1	7.46
CCCCCCC(=O)N/N=C/Cc1ccccc1	1.46
C=CCNC(=O)/C(=C/c1ccco1)NC(=O)c1ccc(Br)o1	9.22
Cc1ccccc1Oc1ccccc1N	17.3
Cc1cc2nc3c(=O)n(Cc4ccccc4)c(=O)[nH]c3nc2cc1N	7.59
O=C(Nc1ccccc1Cl)c1ccc2nc(N3CCOCC3)sc2c1	11.4
COc1ccc(/C(N)=N/OC(=O)CSc2ccccc2)cc1OC	11

SMILES	hERG current change (%, negative = inhibition) at 1uM [%]
COc1cc(OC)c(C2NC(=O)CCC2[N+](=O)[O-])cc1OC (stereo not shown)	12.3
Nc1nonc1C(=Nc1ccc(Br)cc1)NO	9.26
COc1ccc(C(=O)O)cc1NCc1ccc(C)s1	20.7
Cc1cc(Cl)c(S(=O)(=O)NCc2cccnc2)cc1OCC(=O)NC1CCCCC1	-18.8
Cc1cc(Cl)ccc1C(=O)C1CCCN(C(=O)c2cnsn2)C1 (stereo not shown)	7.09
CC(=O)c1ccccc1C(=O)NCc1cccnc1	3.39
CCOC(=O)N1CCC(N2CCN(S(=O)(=O)c3ccc(OC)cc3)CC2)CC1.O=C(O)C(=O)O	1.98
COc1ccc(/C=C/C(=O)Nc2sc(Cc3ccccc3)c(C)c2C(N)=O)cc1	4.59
O=C(NCc1nnnn1-c1ccc(F)cc1)c1ccc([N+](=O)[O-])o1	3.63
Cn1ccsc1=NC(=O)c1ccc([N+](=O)[O-])o1	2.7
CCOc1ccc(S(=O)(=O)NCCC(=O)Nc2cccc(C(=O)OC)c2)cc1	2.98
CNC(=S)N/N=C(\C)c1ccc(C)c(C)c1	-0.582
Cn1nc(C(=O)N2CCN(c3cccc(Cl)c3)CC2)c2c1-c1ccccc1S(=O)(=O)C2	-30.8
O=C(Nc1cnc2ccccc2c1)c1cccnc1	16.9
CC(=O)Nc1csc2ccccc12	4.39
C/C(=N\NC(=O)C(O)c1ccccc1)c1ccc(Cl)s1 (stereo not shown)	3.85
CCCC(=O)NCCCc1nc2ccccc2n1CC	8.43
Cc1cc(C)c(NC(=O)COc2ccccc2C(=O)Nc2ccc3c(c2)oc2ccccc23)c(C)c1	-0.166
